No constants are given. Whether binding was seen depends on the method and setting. In cells and extracts the contact can be indirect. Some entries that bind do so weakly or less than the wild type. Tags and fused reporters may be left off the sequences shown.

What all share (assay): co-IP; transfected 293T cell lysates (modified EBC buffer), IP with GFP antibody beads, western blot with Myc, GFP, FOP or VPRBP antibodies
In assay [1] the target is T1, GFP-CEP78 middle (aa203-403) (human) (UniProt Q5JTW2).
T1 sequence: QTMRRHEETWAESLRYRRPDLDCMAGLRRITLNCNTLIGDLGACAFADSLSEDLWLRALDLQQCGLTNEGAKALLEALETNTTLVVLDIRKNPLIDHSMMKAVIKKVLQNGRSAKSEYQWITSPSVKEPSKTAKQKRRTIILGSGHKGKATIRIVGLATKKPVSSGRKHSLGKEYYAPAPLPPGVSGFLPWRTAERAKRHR

In assay [2] the target is T2, GFP-CEP78 N-terminus (aa2-217) (human) (UniProt Q5JTW2).
T2 sequence: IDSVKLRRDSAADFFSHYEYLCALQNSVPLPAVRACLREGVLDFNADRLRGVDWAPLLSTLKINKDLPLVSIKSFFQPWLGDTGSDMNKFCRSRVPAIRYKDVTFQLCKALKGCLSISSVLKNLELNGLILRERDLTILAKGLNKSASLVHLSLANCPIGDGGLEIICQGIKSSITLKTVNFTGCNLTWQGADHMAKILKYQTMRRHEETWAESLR

In assay [3] the target is T3, GFP-CEP78 C-terminus (aa395-722) (human) (UniProt Q5JTW2).
T3 sequence: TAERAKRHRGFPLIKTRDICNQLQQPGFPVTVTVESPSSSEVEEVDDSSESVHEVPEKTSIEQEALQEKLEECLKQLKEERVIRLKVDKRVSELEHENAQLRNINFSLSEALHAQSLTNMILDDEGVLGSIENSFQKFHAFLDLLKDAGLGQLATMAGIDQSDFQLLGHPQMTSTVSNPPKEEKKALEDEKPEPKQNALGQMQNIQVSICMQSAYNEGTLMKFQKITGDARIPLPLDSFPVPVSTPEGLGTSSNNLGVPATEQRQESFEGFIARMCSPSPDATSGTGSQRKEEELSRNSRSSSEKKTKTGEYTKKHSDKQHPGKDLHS

Assay [4] concerns the target T4, GFP-CEP78 (human) (UniProt Q5JTW2).
T4 sequence: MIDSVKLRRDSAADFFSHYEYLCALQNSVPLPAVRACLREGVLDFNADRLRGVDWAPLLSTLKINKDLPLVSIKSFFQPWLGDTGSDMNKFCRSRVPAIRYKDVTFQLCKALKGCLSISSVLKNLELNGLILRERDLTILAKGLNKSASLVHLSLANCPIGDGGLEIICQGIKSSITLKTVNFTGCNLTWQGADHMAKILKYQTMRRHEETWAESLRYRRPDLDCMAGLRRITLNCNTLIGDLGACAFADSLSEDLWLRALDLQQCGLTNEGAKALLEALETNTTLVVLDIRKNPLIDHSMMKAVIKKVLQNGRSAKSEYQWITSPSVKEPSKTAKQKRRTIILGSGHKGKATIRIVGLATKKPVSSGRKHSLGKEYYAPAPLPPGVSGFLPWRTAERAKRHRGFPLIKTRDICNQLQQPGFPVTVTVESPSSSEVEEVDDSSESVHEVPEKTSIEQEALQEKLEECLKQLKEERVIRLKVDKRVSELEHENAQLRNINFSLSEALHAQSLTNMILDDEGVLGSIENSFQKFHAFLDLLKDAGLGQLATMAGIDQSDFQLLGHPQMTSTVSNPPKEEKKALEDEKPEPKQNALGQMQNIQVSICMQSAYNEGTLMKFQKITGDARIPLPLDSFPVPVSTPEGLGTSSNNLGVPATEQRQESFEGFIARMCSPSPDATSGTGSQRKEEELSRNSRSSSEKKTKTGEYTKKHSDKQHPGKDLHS

Assay [5] concerns the target T5, GFP-CEP78 N-terminus plus middle (aa2-403) (human) (UniProt Q5JTW2).
T5 sequence: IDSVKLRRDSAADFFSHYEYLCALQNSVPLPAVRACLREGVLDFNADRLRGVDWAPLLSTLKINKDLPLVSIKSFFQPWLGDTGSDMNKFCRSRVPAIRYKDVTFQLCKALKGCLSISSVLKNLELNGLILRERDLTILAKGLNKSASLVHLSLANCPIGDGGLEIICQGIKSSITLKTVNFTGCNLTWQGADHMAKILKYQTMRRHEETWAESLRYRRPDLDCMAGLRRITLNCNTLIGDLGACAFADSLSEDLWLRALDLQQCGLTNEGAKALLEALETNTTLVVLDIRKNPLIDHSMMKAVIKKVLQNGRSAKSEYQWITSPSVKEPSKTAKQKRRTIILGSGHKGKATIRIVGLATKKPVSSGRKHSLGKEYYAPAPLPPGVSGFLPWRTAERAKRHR

B1: Myc-CEP350 N-terminus (aa1-983) (domain or fragment, UniProt Q5VT06 1-983)
chain: MRSSKSKEVPLPNPRNSQSKDTVQADITTSWDALSQTKAALRHIENKLEVAPTSTAVCDSVMDTKKSSTSATRKISRKDGRYLDDSWVNAPISKSTKSRKEKSRSPLRATTLESNVKKNNRVEFREPLVSYREIHGAPSNFSSSHLESKHVYCVDVNEEKTESGNWMIGSREERNIRSCDFESSQSSVINDTVVRFLNDRPAIDALQNSECLIRMGASMRTEEEMPNRTKGSENNLKLSVNNMAHDTDPKALRLTDSSPSSTSTSNSQRLDILKRRQHDVKLEKLKERIRKQWEHSEETNGRGQKLGHIDHPVMVVNVDNSVTAKVRKVATAPPAPAYKGFNPSETKIRTPDGKVWQEAEFQNMSRELYRDLALHFADDISIKEKPAEKSKEKKVVKPVRKVQKVAQLSSTECRTGSSHLISTSSWRDGQKLVKKILGPAPRMEPKEQRTASSDRGGRERTAKSGGHIGRAESDPRLDVLHRHLQRNSERSRSKSRSENNIKKLASSLPDNKQEENTALNKDFLPIEIRGILDDLQLDSTAHTAKQDTVELQNQKSSAPVHAPRSHSPVKRKPDKITANEDPPVISKRRHYDTDEVRQYIVRQQEERKRKQNEEKKAQKEATEQKNKRLQELYRKQKEAFTKVKNVPPSEPSATRRLQETYSKLLLEKTLLEEPSHQHVTQETQAKPGYQPSGESDKENKVQERPPSASSSSDMSLSEPPQPLARKDLMESTWMQPERLSPQVHHSQPQPFAGTAGSLLSHLLSLEHVGILHKDFESILPTRKNHNMASRPLTFTPQPYVTSPAAYTDALLKPSASQYKSKLDRIEALKATAASLSSRIESEAKKLAGASINYGSAWNTEYDVQQAPQEDGPWTKAVTPPVKDDNEDVFSARIQKMLGSCVSHATFDDDLPGVGNLSEFKKLPEMIRPQSAISSFRVRSPGPKPEGLLAQLCKRQTDSSSSDMQACSQDKAKISLGSSIDSVS
On to B1, for which the binding entry in assay [1] is listed as “no binding”; in assay [2], “no binding”; in assay [3] it was “binds”; in assay [4] it was “binds”; in assay [5], “binds weakly”.
